Screen size: about 200,000 compounds; about 10 (0.005%) were called active. This list was built around the results that the source calls inconclusive (neither active nor inactive); the mix of calls is not that of the screen. Calls come from the whole dose curve; as a rule, active = well fitted inhibition curve with a large enough effect; inconclusive = small, poorly fitted or top-dose-only effect, or effect the other way, or another doubt; inactive = no such curve, though single readings can be large or run the other way. No potency is given beside an inconclusive call; the fits are too rough.
target: Lysosomal alpha-glucosidase (Homo sapiens) (UniProt P10253); experiment: qHTS Assay for Inhibitors of Human alpha-Glucosidase as a Potential Chaperone Treatment of Pompe Disease; settings: purified human GAA, 4-MU-alpha-glucoside fluorescence; activity change, negative = inhibition: at 76.9 µM (top of the series) unless noted;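 for activity change, negative = inhibition: plate controls were uninhibited enzyme wells for no effect and no-enzyme background for full effect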
In short: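 Compounds are titrated up to 77 uM against 4 nM human enzyme. Substrate 4-methylumbelliferyl-alpha-D-pyranoside (400 uM) reacts 20 min at room temperature in pH 5.0 buffer; liberated 4-methylumbelliferone is read at 440 nm.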
Potency is the fitted concentration of half-maximal effect; tags give direction and shape of the fitted curve.

SMILES	Potency	activity change, negative = inhibition
CCC(Oc1cc(Cl)ccc1Cl)C(=O)NNC(=O)CCC(=O)O (stereo not given)	inconclusive [inhibitor, single point]	
c1ccc(CN2CCCC3(CCCN(Cc4nc(CC5CC5)no4)C3)C2)cc1 (stereo not given)	inconclusive [inhibitor, full curve, poor fit]	
COc1ccc(-c2cc(C(=O)N3CCN(c4ccccc4)CC3)c3ccccc3n2)cc1	inconclusive [inhibitor, single point]	
COc1ccc(CNc2nc(C)c([N+](=O)[O-])c(C)c2C#N)cc1	inconclusive [inhibitor, single point]	
CNC(=O)CSc1nnc(-c2ccco2)n1-c1ccc(C)cc1	inconclusive [inhibitor, partial curve]	
COc1ccc(NC(=O)CNc2cc(S(=O)(=O)N3CCOCC3)ccc2NCC2CCCO2)cc1 (stereo not given)	inconclusive [inhibitor, single point]	
C=CCSc1nc(N)c(C(=O)Nc2ccccc2C)cc1C(N)=O	inconclusive [inhibitor, single point]	
CCOc1cc2c(C#N)c(N3CCOCC3)nc(N)c2c(N)n1	inactive	
CCNc1nc(NCC)nc(Nn2cnnc2)n1	inconclusive [inhibitor, single point]	
O=C(Nc1ccc(-c2nc3ccccc3s2)cc1)C1=COCCO1		inconclusive: 15.3% [activator]
COc1ccc(N2CCN(S(=O)(=O)/C=C/c3ccccc3)CC2)cc1	inconclusive [inhibitor, single point]	
CCOC(=O)Cc1csc(NC(=O)CCN2C(=O)c3ccccc3C2=O)n1	inconclusive [inhibitor, single point]	
Cc1ccc(S(=O)(=O)n2cnc3cc([N+](=O)[O-])ccc32)c(C)c1C	inconclusive [activator, single point]	
Fc1ccc(C2c3cccn3CCN2C(=S)Nc2cccc(F)c2)cc1 (stereo not given)	inconclusive [inhibitor, partial curve, poor fit]	
Cc1nn(C(C)C(=O)NNC(=S)Nc2ccc(Cl)cc2)c(C)c1[N+](=O)[O-] (stereo not given)	inconclusive [inhibitor, single point]	
Cc1cc(C(C#N)c2ccccc2)n2ncnc2n1 (stereo not given)	inconclusive [inhibitor, full curve, poor fit]	
Cc1cc(NC(=O)CSc2nnc(-c3ccc(S(=O)(=O)N4CCCC4)cc3)n2C)no1	inconclusive [inhibitor, single point]	
CCOc1cccc(CNCCO)c1OCc1ccc(Cl)cc1Cl	inactive	
CNc1nc(-c2cccs2)cc(C(F)(F)F)c1C#N	inconclusive [activator, partial curve]	
O=S(=O)(O)c1ccc(N2N=C(c3ccccc3)CC2c2ccccc2)cc1 (stereo not given)	inconclusive [activator, partial curve]	

SMILES	Potency	activity change, negative = inhibition
COc1ccc(C)cc1NS(=O)(=O)c1ccc(NS(=O)(=O)c2ccc(NC(C)=O)cc2)cc1		inconclusive: -15.1% [inhibitor]
O=C(NN1C(=O)c2ccc3c4c(ccc(c24)C1=O)CC3)c1ccc(Br)cc1	inconclusive [activator, partial curve]	
O=C(Nc1ccccn1)c1ccc(Br)c(S(=O)(=O)N2CCCCC2)c1	inconclusive [activator, partial curve, poor fit]	
COc1ccccc1NC(=O)C1=C(C)NC2=C(C(=O)CC(c3ccc(OC)c(OC)c3)C2)C1c1coc2ccccc2c1=O (stereo not given)	inconclusive [inhibitor, single point]	
CN1CCc2c(sc3c2c(NCc2ccco2)nc2nnnn23)C1	inconclusive [inhibitor, single point]	
CCn1nc2cc(C(=O)NCCc3cccs3)ccc2c1OC	inconclusive [inhibitor, full curve, poor fit]	
COc1ccc(-n2nc3c(c2NC(=O)c2c(F)cccc2Cl)CS(=O)C3)cc1 (stereo not given)	inconclusive [inhibitor, single point]	
COC(=O)c1ccc(C)c(NS(=O)(=O)c2ccc(C)c([N+](=O)[O-])c2)c1		inconclusive: 18.9% [activator]
O=c1cc(N2CCCCC2)c(-c2ccccc2)nn1Cc1ccc(Cl)cc1Cl	inconclusive [inhibitor, single point]	
O=C(NC1=NCCS1)C1CC(=O)N(c2ccc(Cl)cc2)C1 (stereo not given)	inconclusive [inhibitor, full curve, poor fit]	
O=C(OCc1ccco1)c1ccc(S(=O)(=O)N2CCCCC2)cc1	inconclusive [inhibitor, partial curve]	
Cc1ccc(Cn2ccc(NC(=O)CCSc3nc(-c4ccco4)cc(C(F)(F)F)n3)n2)cc1	inconclusive [inhibitor, full curve]	
Cc1ccc(S(=O)(=O)C(C#N)c2nc3ccccc3nc2N2CCCC2)cc1C (stereo not given)	inconclusive [activator, partial curve]	
CCOc1ccccc1CNc1ccc(O)cc1	inactive	
Cc1[nH]c2ccccc2c1C(=O)CSc1ccccc1	inconclusive [inhibitor, single point]	
COC(=O)c1ccc(N)cc1O	inconclusive [inhibitor, single point]	
O=C(O)CC12CSc3[nH]c(=O)sc3C1c1ccccc1OC2=O (stereo not given)	inconclusive [activator, single point]	
CCN1CCN(CC(O)COc2ccc3c(C)cc(=O)oc3c2)CC1 (stereo not given)	inconclusive [activator, partial curve]	
CSc1nnc(-c2cccn(Cc3cccc(Cl)c3)c2=O)o1	inconclusive [activator, partial curve]	
C/C(=N\N1CCN(C2c3ccccc3-c3ccccc32)CC1)c1ccncc1	inconclusive [inhibitor, single point]	
